Test results taken from PMC12820563.
Some of the results follow. The list includes weakly bound sequences.

target: T1, MBP-FoxP3dN (UniProt Q99JB6); assay: PD-seq (MBP pull-down with sequencing); conditions: 20 mM Tris-HCl pH 7.5, 100 mM NaCl, 1.5 mM MgCl2, 0.4 uM protein, 0.1 uM dsDNA library, 30 min, room temperature, amylose pull-down; high values mean tight binding; double strand, one strand shown
T1 sequence: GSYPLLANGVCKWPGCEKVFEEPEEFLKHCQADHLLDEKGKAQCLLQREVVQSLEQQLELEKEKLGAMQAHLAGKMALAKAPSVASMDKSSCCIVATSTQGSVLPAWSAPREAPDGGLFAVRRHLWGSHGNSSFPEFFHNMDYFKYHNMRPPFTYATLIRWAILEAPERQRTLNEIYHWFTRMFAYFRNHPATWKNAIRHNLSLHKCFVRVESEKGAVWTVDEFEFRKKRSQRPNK

| Sequence | binding signal (RPM ratio (pull-down/input)) |
| --- | --- |
| GATGATTGTTCTCCCAGCTGATGAATTATAGACTTCGAGTAAACAAATTTTCCTAATCTTTCTGTTCAAGCGCCATCTAC | 0.576 |
| GATGATTGTTCTCCCAGCTGATGAATTTCCAGGCTCGAGTAAACAAATTTTCCTAATCTTTCTGTTCAAGCGCCATCTAC | 0.243 |
| GATGATTGTTCTCCCAGCTGATGAATTCGAGCGATCGAGTAAACAAATTTTCCTAATCTTTCTGTTCAAGCGCCATCTAC | 0.416 |
| GATGATTGTTCTCCCAGCTGATGAATTTCCCAAGTCGAGTAAACAAATTTTCCTAATCTTTCTGTTCAAGCGCCATCTAC | 0.151 |
| GATGATTGTTCTCCCAGCTGATGAATTGTAACAATCGAGTAAACAAATTTTCCTAATCTTTCTGTTCAAGCGCCATCTAC | 2.9 |
| GATGATTGTTCTCCCAGCTGATGAATTCTTGGGTTCGAGTAAACAAATTTTCCTAATCTTTCTGTTCAAGCGCCATCTAC | 0.281 |
| GATGATTGTTCTCCCAGCTGATGAATTCCCAAGTTCGAGTAAACAAATTTTCCTAATCTTTCTGTTCAAGCGCCATCTAC | 0.165 |
| GATGATTGTTCTCCCAGCTGATGAATTACGCAATTCGAGTAAACAAATTTTCCTAATCTTTCTGTTCAAGCGCCATCTAC | 4.44 |
| GATGATTGTTCTCCCAGCTGATGAATTTGCCTATTCGAGTAAACAAATTTTCCTAATCTTTCTGTTCAAGCGCCATCTAC | 1.39 |
| GATGATTGTTCTCCCAGCTGATGAATTTTCTGTTTCGAGTAAACAAATTTTCCTAATCTTTCTGTTCAAGCGCCATCTAC | 0.343 |
| GATGATTGTTCTCCCAGCTGATGAATTTTGAGACTCGAGTAAACAAATTTTCCTAATCTTTCTGTTCAAGCGCCATCTAC | 0.962 |
| GATGATTGTTCTCCCAGCTGATGAATTTTTTATTTCGAGTAAACAAATTTTCCTAATCTTTCTGTTCAAGCGCCATCTAC | 0.301 |
| GATGATTGTTCTCCCAGCTGATGAATTGCCCAGTTCGAGTAAACAAATTTTCCTAATCTTTCTGTTCAAGCGCCATCTAC | 0.41 |
| GATGATTGTTCTCCCAGCTGATGAATTTCAATGCTCGAGTAAACAAATTTTCCTAATCTTTCTGTTCAAGCGCCATCTAC | 0.602 |
| GATGATTGTTCTCCCAGCTGATGAATTGTCGAGCTCGAGTAAACAAATTTTCCTAATCTTTCTGTTCAAGCGCCATCTAC | 0.25 |
| GATGATTGTTCTCCCAGCTGATGAATTATGGCTGTCGAGTAAACAAATTTTCCTAATCTTTCTGTTCAAGCGCCATCTAC | 0.612 |

| Sequence | binding signal (RPM ratio (pull-down/input)) |
| --- | --- |
| GATGATTGTTCTCCCAGCTGATGAATTCAAAGGGTCGAGTAAACAAATTTTCCTAATCTTTCTGTTCAAGCGCCATCTAC | 0.167 |
| GATGATTGTTCTCCCAGCTGATGAATTCTCGTCTTCGAGTAAACAAATTTTCCTAATCTTTCTGTTCAAGCGCCATCTAC | 0.379 |
| GATGATTGTTCTCCCAGCTGATGAATTAAATTATTCGAGTAAACAAATTTTCCTAATCTTTCTGTTCAAGCGCCATCTAC | 1.19 |
| GATGATTGTTCTCCCAGCTGATGAATTCGGCTCATCGAGTAAACAAATTTTCCTAATCTTTCTGTTCAAGCGCCATCTAC | 0.404 |
| GATGATTGTTCTCCCAGCTGATGAATTACACAGCTCGAGTAAACAAATTTTCCTAATCTTTCTGTTCAAGCGCCATCTAC | 0.443 |
| GATGATTGTTCTCCCAGCTGATGAATTGTGAGCGTCGAGTAAACAAATTTTCCTAATCTTTCTGTTCAAGCGCCATCTAC | 0.981 |
| GATGATTGTTCTCCCAGCTGATGAATTCCCCGCGTCGAGTAAACAAATTTTCCTAATCTTTCTGTTCAAGCGCCATCTAC | 0.354 |
| GATGATTGTTCTCCCAGCTGATGAATTCCTGCCATCGAGTAAACAAATTTTCCTAATCTTTCTGTTCAAGCGCCATCTAC | 1.54 |
| GATGATTGTTCTCCCAGCTGATGAATTTCGGCGATCGAGTAAACAAATTTTCCTAATCTTTCTGTTCAAGCGCCATCTAC | 0.503 |
| GATGATTGTTCTCCCAGCTGATGAATTTCCTGGGTCGAGTAAACAAATTTTCCTAATCTTTCTGTTCAAGCGCCATCTAC | 0.169 |
| GATGATTGTTCTCCCAGCTGATGAATTGGGAAGTTCGAGTAAACAAATTTTCCTAATCTTTCTGTTCAAGCGCCATCTAC | 0.246 |
| GATGATTGTTCTCCCAGCTGATGAATTACAGTACTCGAGTAAACAAATTTTCCTAATCTTTCTGTTCAAGCGCCATCTAC | 0.485 |
| GATGATTGTTCTCCCAGCTGATGAATTATTACGCTCGAGTAAACAAATTTTCCTAATCTTTCTGTTCAAGCGCCATCTAC | 0.426 |
| GATGATTGTTCTCCCAGCTGATGAATTCACGCAATCGAGTAAACAAATTTTCCTAATCTTTCTGTTCAAGCGCCATCTAC | 2.61 |
| GATGATTGTTCTCCCAGCTGATGAATTAGAGGGTTCGAGTAAACAAATTTTCCTAATCTTTCTGTTCAAGCGCCATCTAC | 0.459 |
